# Assay results: the supplement of paper PMC8728848
# The list shows a part of the results.
# B1: CML1 (Coprinopsis cinerea) (protein)
# chain: MAIFHTGSELFIITRGPGKLTLLTWGGLNNLRSVIGAIPTENTGVTKWAVSFSHNYTRFSFIWEGQGEACYQIGNGLTRSPVGRSWSSSSTIHWGSSTVITEDVTSVVPGAVNRDKVTTAYALPDNL
# What was measured:
# Assay in all cases: glycan array binding signal (z-score within array); higher = stronger binding
# Conditions in all cases: glycan notation: IUPAC condensed, linker removed
# [1] = target: Gal3S(b1-3)[Fuc(a1-4)]GlcNAc
# Outline: (§1)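 The binding signal is a Z-score computed within each array and averaged over linkers. Arrays of the same protein sequence at different concentrations or buffers were also averaged together. Data originate from 3228 arrays in the Consortium for Functional Glycomics database, kept only where the protein sequence was available.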
# Gal3S(b1-4)Glc = target: Gal3S(b1-4)Glc
# Outline: as §1
# Gal3S(b1-4)Glc6S = target: Gal3S(b1-4)Glc6S
# Outline: as §1
# Gal3S(b1-4)GlcNAc = target: Gal3S(b1-4)GlcNAc
# Outline: as §1
# [2] = target: Gal3S(b1-4)[Fuc(a1-3)]Glc6S
# Outline: as §1
# [3] = target: Gal3S(b1-4)[Fuc(a1-3)]GlcNAc
# Outline: as §1
# [4] = target: Gal3S(b1-4)[Fuc(a1-3)]GlcNAc6S
# Outline: as §1
# Gal3S4S(b1-4)GlcNAc = target: Gal3S4S(b1-4)GlcNAc
# Outline: as §1
# Gal3S6S(b1-4)GlcNAc = target: Gal3S6S(b1-4)GlcNAc
# Outline: as §1
# Gal3S6S(b1-4)GlcNAc6S = target: Gal3S6S(b1-4)GlcNAc6S
# Outline: as §1
# Gal4S(b1-4)GlcNAc = target: Gal4S(b1-4)GlcNAc
# Outline: as §1
# Gal4S6S(b1-4)GlcNAc = target: Gal4S6S(b1-4)GlcNAc
# Outline: as §1
# Gal6P(b1-4)GlcNAc = target: Gal6P(b1-4)GlcNAc
# Outline: as §1
# Gal6S(b1-3)GlcNAc = target: Gal6S(b1-3)GlcNAc
# Outline: as §1
# Gal6S(b1-3)GlcNAc6S = target: Gal6S(b1-3)GlcNAc6S
# Outline: as §1
# Gal6S(b1-4)Glc = target: Gal6S(b1-4)Glc
# Outline: as §1
# Gal6S(b1-4)Glc6S = target: Gal6S(b1-4)Glc6S
# Outline: as §1
# Gal6S(b1-4)GlcNAc = target: Gal6S(b1-4)GlcNAc
# Outline: as §1
# Gal6S(b1-4)GlcNAc6S = target: Gal6S(b1-4)GlcNAc6S
# Outline: as §1
# GalNAc(a1-3)Gal = target: GalNAc(a1-3)Gal
# Outline: as §1
# GalNAc(a1-3)GalNAc = target: GalNAc(a1-3)GalNAc
# Outline: as §1
# [5] = target: GalNAc(a1-3)GalNAc(b1-3)Gal(a1-4)Gal(b1-4)Glc
# Outline: as §1
# [6] = target: GalNAc(a1-3)GalNAc(b1-3)Gal(a1-4)Gal(b1-4)GlcNAc
# Outline: as §1
# GalNAc(b1-3)Gal = target: GalNAc(b1-3)Gal
# Outline: as §1
# [7] = target: GalNAc(b1-3)Gal(a1-4)Gal(b1-4)GlcNAc
# Outline: as §1
# [8] = target: GalNAc(b1-3)Gal(a1-4)Gal(b1-4)GlcNAc(b1-3)Gal(b1-4)Glc
# Outline: as §1
# [9] = target: GalNAc(b1-3)Gal(a1-6)Gal(b1-4)Glc
# Outline: as §1
# GalNAc(b1-3)GalNAc = target: GalNAc(b1-3)GalNAc
# Outline: as §1
# GalNAc(b1-3)GlcNAc = target: GalNAc(b1-3)GlcNAc
# Outline: as §1
# GalNAc(b1-4)Gal(b1-4)Glc = target: GalNAc(b1-4)Gal(b1-4)Glc
# Outline: as §1
# GalNAc(b1-4)GlcNAc = target: GalNAc(b1-4)GlcNAc
# Outline: as §1
# [10] = target: GalNAc(b1-4)GlcNAc(b1-2)Man
# Outline: as §1
# [11] = target: GalNAc(b1-4)GlcNAc(b1-2)Man(a1-3)[GalNAc(b1-4)GlcNAc(b1-2)Man(a1-6)]Man(b1-4)GlcNAc(b1-4)GlcNAc
# Outline: as §1
# [12] = target: GalNAc(b1-4)GlcNAc(b1-3)GalNAc(b1-4)GlcNAc
# Outline: as §1
# GalNAc(b1-4)GlcNAc6S = target: GalNAc(b1-4)GlcNAc6S
# Outline: as §1
# GalNAc(b1-6)GalNAc = target: GalNAc(b1-6)GalNAc
# Outline: as §1
# GalNAc3S(b1-4)GlcNAc = target: GalNAc3S(b1-4)GlcNAc
# Outline: as §1
# GalNAc3S(b1-4)GlcNAc3S = target: GalNAc3S(b1-4)GlcNAc3S
# Outline: as §1
# [13] = target: GalNAc3S(b1-4)[Fuc(a1-3)]GlcNAc
# Outline: as §1
# GalNAc4S6S(b1-4)GlcNAc = target: GalNAc4S6S(b1-4)GlcNAc
# Outline: as §1
# GalNAc6S(b1-4)GlcNAc = target: GalNAc6S(b1-4)GlcNAc
# Outline: as §1
# Glc(a1-4)Glc = target: Glc(a1-4)Glc
# Outline: as §1
# [14] = target: Glc(a1-4)Glc(a1-4)Glc(a1-4)Glc
# Outline: as §1
# Glc(a1-6)Glc(a1-6)Glc = target: Glc(a1-6)Glc(a1-6)Glc
# Outline: as §1
# [15] = target: Glc(a1-6)Glc(a1-6)Glc(a1-6)Glc
# Outline: as §1
binder,measurement,setting,value
B1,glycan array binding signal (z-score),[1],3.48
same,glycan array binding signal (z-score),Gal3S(b1-4)Glc,-0.352
same,glycan array binding signal (z-score),Gal3S(b1-4)Glc6S,-0.346
same,glycan array binding signal (z-score),Gal3S(b1-4)GlcNAc,-0.325
same,glycan array binding signal (z-score),[2],2.82
same,glycan array binding signal (z-score),[3],3.35
same,glycan array binding signal (z-score),[4],-0.342
same,glycan array binding signal (z-score),Gal3S4S(b1-4)GlcNAc,-0.342
same,glycan array binding signal (z-score),Gal3S6S(b1-4)GlcNAc,-0.312
same,glycan array binding signal (z-score),Gal3S6S(b1-4)GlcNAc6S,-0.288
same,glycan array binding signal (z-score),Gal4S(b1-4)GlcNAc,-0.34
same,glycan array binding signal (z-score),Gal4S6S(b1-4)GlcNAc,-0.333
same,glycan array binding signal (z-score),Gal6P(b1-4)GlcNAc,-0.339
same,glycan array binding signal (z-score),Gal6S(b1-3)GlcNAc,-0.325
same,glycan array binding signal (z-score),Gal6S(b1-3)GlcNAc6S,-0.336
same,glycan array binding signal (z-score),Gal6S(b1-4)Glc,-0.319
same,glycan array binding signal (z-score),Gal6S(b1-4)Glc6S,-0.324
same,glycan array binding signal (z-score),Gal6S(b1-4)GlcNAc,-0.347
same,glycan array binding signal (z-score),Gal6S(b1-4)GlcNAc6S,-0.288
same,glycan array binding signal (z-score),GalNAc(a1-3)Gal,-0.355
same,glycan array binding signal (z-score),GalNAc(a1-3)GalNAc,-0.342
same,glycan array binding signal (z-score),[5],-0.337
same,glycan array binding signal (z-score),[6],-0.346
same,glycan array binding signal (z-score),GalNAc(b1-3)Gal,-0.355
same,glycan array binding signal (z-score),[7],-0.329
same,glycan array binding signal (z-score),[8],-0.315
same,glycan array binding signal (z-score),[9],-0.341
same,glycan array binding signal (z-score),GalNAc(b1-3)GalNAc,-0.349
same,glycan array binding signal (z-score),GalNAc(b1-3)GlcNAc,-0.34
same,glycan array binding signal (z-score),GalNAc(b1-4)Gal(b1-4)Glc,-0.324
same,glycan array binding signal (z-score),GalNAc(b1-4)GlcNAc,-0.334
same,glycan array binding signal (z-score),[10],-0.349
same,glycan array binding signal (z-score),[11],-0.341
same,glycan array binding signal (z-score),[12],-0.315
same,glycan array binding signal (z-score),GalNAc(b1-4)GlcNAc6S,-0.33
same,glycan array binding signal (z-score),GalNAc(b1-6)GalNAc,-0.362
same,glycan array binding signal (z-score),GalNAc3S(b1-4)GlcNAc,-0.328
same,glycan array binding signal (z-score),GalNAc3S(b1-4)GlcNAc3S,-0.331
same,glycan array binding signal (z-score),[13],2.75
same,glycan array binding signal (z-score),GalNAc4S6S(b1-4)GlcNAc,-0.313
same,glycan array binding signal (z-score),GalNAc6S(b1-4)GlcNAc,-0.34
same,glycan array binding signal (z-score),Glc(a1-4)Glc,-0.34
same,glycan array binding signal (z-score),[14],-0.306
same,glycan array binding signal (z-score),Glc(a1-6)Glc(a1-6)Glc,-0.322
same,glycan array binding signal (z-score),[15],-0.329
